The list shows a part of the results.

The test deals with T1, MBP-FoxP1dN (Mus musculus, UniProt P58462 326-579).
T1 sequence: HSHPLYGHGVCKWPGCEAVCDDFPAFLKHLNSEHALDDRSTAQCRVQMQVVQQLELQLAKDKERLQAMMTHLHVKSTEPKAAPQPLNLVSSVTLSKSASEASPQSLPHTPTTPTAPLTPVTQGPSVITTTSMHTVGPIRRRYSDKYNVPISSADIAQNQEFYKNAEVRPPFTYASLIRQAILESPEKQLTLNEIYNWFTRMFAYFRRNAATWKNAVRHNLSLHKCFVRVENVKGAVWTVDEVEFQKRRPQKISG
Put plainly: PD-seq (MBP pull-down with sequencing); 20 mM Tris-HCl pH 7.5, 100 mM NaCl, 1.5 mM MgCl2, 0.4 uM protein, 0.1 uM dsDNA library, 30 min, room temperature, amylose pull-down; high values mean tight binding. The settings on record: protein: recombinant; tags: His6-MBP; chain copies: 2; dsDNA, one strand shown. The gist of the method:
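Mouse FoxP3 or FoxP1 fragment lacking the N-terminus, His6-MBP-tagged and expressed in E. coli, was incubated at 0.4 µM with 0.1 µM Klenow-filled degenerate double-stranded DNA library for 30 min at room temperature in Tris pH 7.5 buffer with NaCl and MgCl2. Complexes captured on amylose resin were washed three times and their DNA sequenced on Illumina. Binding is reads-per-million enrichment of pull-down over input, replicates pooled.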
Turning to “GATGATTGTTCTCCCAGCTGATGAATTCTGGCCCTCGAGTAAACAAATTTTCCTAATCTTTCTGTTCAAGCGCCATCTAC”, the binding signal is 0.782 RPM ratio (pull-down/input).
Under “GATGATTGTTCTCCCAGCTGATGAATTGACAGCCTCGAGTAAACAAATTTTCCTAATCTTTCTGTTCAAGCGCCATCTAC” stands 1.03 RPM ratio (pull-down/input); under “GATGATTGTTCTCCCAGCTGATGAATTAAGTGATTCGAGTAAACAAATTTTCCTAATCTTTCTGTTCAAGCGCCATCTAC”, 0.916 RPM ratio (pull-down/input); under “GATGATTGTTCTCCCAGCTGATGAATTCTCGGCTTCGAGTAAACAAATTTTCCTAATCTTTCTGTTCAAGCGCCATCTAC”, 0.78 RPM ratio (pull-down/input).
Under “GATGATTGTTCTCCCAGCTGATGAATTAGAGCTGTCGAGTAAACAAATTTTCCTAATCTTTCTGTTCAAGCGCCATCTAC” stands 0.882 RPM ratio (pull-down/input).
In the case of “GATGATTGTTCTCCCAGCTGATGAATTCGCATCCTCGAGTAAACAAATTTTCCTAATCTTTCTGTTCAAGCGCCATCTAC”, the binding signal is 1.24 RPM ratio (pull-down/input).
As to “GATGATTGTTCTCCCAGCTGATGAATTATATCGCTCGAGTAAACAAATTTTCCTAATCTTTCTGTTCAAGCGCCATCTAC”, the binding signal was 0.946 RPM ratio (pull-down/input).
The same measure for “GATGATTGTTCTCCCAGCTGATGAATTGGCTAGGTCGAGTAAACAAATTTTCCTAATCTTTCTGTTCAAGCGCCATCTAC”: 0.79 RPM ratio (pull-down/input); for “GATGATTGTTCTCCCAGCTGATGAATTCAGCGCCTCGAGTAAACAAATTTTCCTAATCTTTCTGTTCAAGCGCCATCTAC”: 0.988 RPM ratio (pull-down/input); for “GATGATTGTTCTCCCAGCTGATGAATTCTGAGAATCGAGTAAACAAATTTTCCTAATCTTTCTGTTCAAGCGCCATCTAC”: 0.923 RPM ratio (pull-down/input).
For “GATGATTGTTCTCCCAGCTGATGAATTTCGGCGCTCGAGTAAACAAATTTTCCTAATCTTTCTGTTCAAGCGCCATCTAC”, the binding signal is 0.772 RPM ratio (pull-down/input).
Consider “GATGATTGTTCTCCCAGCTGATGAATTCAGTTTGTCGAGTAAACAAATTTTCCTAATCTTTCTGTTCAAGCGCCATCTAC”, for which the binding signal was 1.29 RPM ratio (pull-down/input).
The same measure for “GATGATTGTTCTCCCAGCTGATGAATTGACGACATCGAGTAAACAAATTTTCCTAATCTTTCTGTTCAAGCGCCATCTAC”: 1.16 RPM ratio (pull-down/input).
The same measure for “GATGATTGTTCTCCCAGCTGATGAATTACTAGGTTCGAGTAAACAAATTTTCCTAATCTTTCTGTTCAAGCGCCATCTAC”: 0.969 RPM ratio (pull-down/input); for “GATGATTGTTCTCCCAGCTGATGAATTATAATATTCGAGTAAACAAATTTTCCTAATCTTTCTGTTCAAGCGCCATCTAC”: 1.11 RPM ratio (pull-down/input); for “GATGATTGTTCTCCCAGCTGATGAATTGAGCAAGTCGAGTAAACAAATTTTCCTAATCTTTCTGTTCAAGCGCCATCTAC”: 0.74 RPM ratio (pull-down/input).
As for “GATGATTGTTCTCCCAGCTGATGAATTTGTGACGTCGAGTAAACAAATTTTCCTAATCTTTCTGTTCAAGCGCCATCTAC”, the binding signal is 1.15 RPM ratio (pull-down/input).
The same measure for “GATGATTGTTCTCCCAGCTGATGAATTGCAGGAGTCGAGTAAACAAATTTTCCTAATCTTTCTGTTCAAGCGCCATCTAC”: 1 RPM ratio (pull-down/input); for “GATGATTGTTCTCCCAGCTGATGAATTCACAACGTCGAGTAAACAAATTTTCCTAATCTTTCTGTTCAAGCGCCATCTAC”: 1.03 RPM ratio (pull-down/input).
Consider “GATGATTGTTCTCCCAGCTGATGAATTGGTGCGATCGAGTAAACAAATTTTCCTAATCTTTCTGTTCAAGCGCCATCTAC”, for which the binding signal is 0.971 RPM ratio (pull-down/input).
Turning to “GATGATTGTTCTCCCAGCTGATGAATTCGGCAACTCGAGTAAACAAATTTTCCTAATCTTTCTGTTCAAGCGCCATCTAC”, the binding signal was 0.89 RPM ratio (pull-down/input).
Under “GATGATTGTTCTCCCAGCTGATGAATTTATCCCTTCGAGTAAACAAATTTTCCTAATCTTTCTGTTCAAGCGCCATCTAC” stands 1.05 RPM ratio (pull-down/input); under “GATGATTGTTCTCCCAGCTGATGAATTTAAAATATCGAGTAAACAAATTTTCCTAATCTTTCTGTTCAAGCGCCATCTAC”, 1.12 RPM ratio (pull-down/input).
The same measure for “GATGATTGTTCTCCCAGCTGATGAATTGTGGGAGTCGAGTAAACAAATTTTCCTAATCTTTCTGTTCAAGCGCCATCTAC”: 0.924 RPM ratio (pull-down/input); for “GATGATTGTTCTCCCAGCTGATGAATTAAGAAGTTCGAGTAAACAAATTTTCCTAATCTTTCTGTTCAAGCGCCATCTAC”: 0.822 RPM ratio (pull-down/input); for “GATGATTGTTCTCCCAGCTGATGAATTACGAGGGTCGAGTAAACAAATTTTCCTAATCTTTCTGTTCAAGCGCCATCTAC”: 0.894 RPM ratio (pull-down/input).
For the sequence “GATGATTGTTCTCCCAGCTGATGAATTACACGTATCGAGTAAACAAATTTTCCTAATCTTTCTGTTCAAGCGCCATCTAC”, the binding signal was 1.18 RPM ratio (pull-down/input).
“GATGATTGTTCTCCCAGCTGATGAATTCTGGTCCTCGAGTAAACAAATTTTCCTAATCTTTCTGTTCAAGCGCCATCTAC”: the binding signal was 0.724 RPM ratio (pull-down/input).
As to “GATGATTGTTCTCCCAGCTGATGAATTGTCCACCTCGAGTAAACAAATTTTCCTAATCTTTCTGTTCAAGCGCCATCTAC”, the binding signal was 0.968 RPM ratio (pull-down/input).
For “GATGATTGTTCTCCCAGCTGATGAATTGTCACTGTCGAGTAAACAAATTTTCCTAATCTTTCTGTTCAAGCGCCATCTAC”, the binding signal is 1.11 RPM ratio (pull-down/input).
With “GATGATTGTTCTCCCAGCTGATGAATTACGGAGCTCGAGTAAACAAATTTTCCTAATCTTTCTGTTCAAGCGCCATCTAC”, the binding signal was 0.806 RPM ratio (pull-down/input).
Take “GATGATTGTTCTCCCAGCTGATGAATTGACATTATCGAGTAAACAAATTTTCCTAATCTTTCTGTTCAAGCGCCATCTAC”: the binding signal was 1.5 RPM ratio (pull-down/input).
